{"source": "the supplement of paper PMC8728848", "binders": {"B1": {"name": "PNA (Arachis hypogaea), P02872 (protein)", "chain": "MKPFCVFLTFFLLLAASSKKVDSAETVSFNFNSFSEGNPAINFQGDVTVLSNGNIQLTNLNKVNSVGRVLYAMPVRIWSSATGNVASFLTSFSFEMKDIKDYDPADGIIFFIAPEDTQIPAGSIGGGTLGVSDTKGAGHFVGVEFDTYSNSEYNDPPTDHVGIDVNSVDSVKTVPWNSVSGAVVKVTVIYDSSTKTLSVAVTNDNGDITTIAQVVDLKAKLPERVKFGFSASGSLGGRQIHLIRSWSFTSTLITTTRRSIDNNEKKIMNMASA"}}, "assay_in_all_cases": "glycan array binding signal (z-score within array); higher = stronger binding", "conditions_in_all_cases": "glycan notation: IUPAC condensed, linker removed", "key": {"[1]": {"molecular_target": "Neu5Ac(a2-6)Gal(b1-3)GlcNAc(b1-3)[Gal(b1-4)GlcNAc(b1-6)]Gal(b1-4)Glc", "method_in_brief": "(§1)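 Glycan array binding is given as a within-array Z-score, which can be read as non-binding when negative. The arrays, 3228 of them, came from the Consortium for Functional Glycomics database and were retained only where the protein sequence was available. Z-scores were averaged across arrays of the same protein sequence at different concentrations or buffers and across linkers.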"}, "[2]": {"molecular_target": "Neu5Ac(a2-6)Gal(b1-3)[Neu5Ac(a2-6)]GalNAc(b1-4)Gal(b1-4)Glc", "method_in_brief": "as §1"}, "Neu5Ac(a2-6)Gal(b1-4)Glc": {"molecular_target": "Neu5Ac(a2-6)Gal(b1-4)Glc", "method_in_brief": "as §1"}, "[3]": {"molecular_target": "Neu5Ac(a2-6)Gal(b1-4)GlcNAc", "method_in_brief": "as §1"}, "[4]": {"molecular_target": "Neu5Ac(a2-6)Gal(b1-4)GlcNAc(b1-2)Man", "method_in_brief": "as §1"}, "[5]": {"molecular_target": "Neu5Ac(a2-6)Gal(b1-4)GlcNAc(b1-2)Man(a1-3)Man(b1-4)GlcNAc(b1-4)GlcNAc", "method_in_brief": "as §1"}, "[6]": {"molecular_target": "Neu5Ac(a2-6)Gal(b1-4)GlcNAc(b1-2)Man(a1-3)[Gal(b1-4)GlcNAc(b1-2)Man(a1-6)]Man(b1-4)GlcNAc(b1-4)GlcNAc", "method_in_brief": "as §1"}, "[7]": {"molecular_target": "Neu5Ac(a2-6)Gal(b1-4)GlcNAc(b1-2)Man(a1-3)[GlcNAc(b1-2)Man(a1-6)]Man(b1-4)GlcNAc(b1-4)GlcNAc", "method_in_brief": "as §1"}, "[8]": {"molecular_target": "Neu5Ac(a2-6)Gal(b1-4)GlcNAc(b1-2)Man(a1-3)[GlcNAc(b1-2)Man(b1-4)GlcNAc(b1-2)Man(a1-6)]Man(b1-4)GlcNAc(b1-4)GlcNAc", "method_in_brief": "as §1"}, "[9]": {"molecular_target": "Neu5Ac(a2-6)Gal(b1-4)GlcNAc(b1-2)Man(a1-3)[GlcNAc(b1-4)][Neu5Ac(a2-6)Gal(b1-4)GlcNAc(b1-2)Man(a1-6)]Man(b1-4)GlcNAc(b1-4)GlcNAc", "method_in_brief": "as §1"}, "[10]": {"molecular_target": "Neu5Ac(a2-6)Gal(b1-4)GlcNAc(b1-2)Man(a1-3)[Man(a1-6)]Man(b1-4)GlcNAc(b1-4)GlcNAc", "method_in_brief": "as §1"}, "[11]": {"molecular_target": "Neu5Ac(a2-6)Gal(b1-4)GlcNAc(b1-2)Man(a1-3)[Neu5Ac(a2-3)Gal(b1-4)GlcNAc(b1-2)Man(a1-6)]Man(b1-4)GlcNAc(b1-4)GlcNAc", "method_in_brief": "as §1"}, "[12]": {"molecular_target": "Neu5Ac(a2-6)Gal(b1-4)GlcNAc(b1-2)Man(a1-3)[Neu5Ac(a2-6)Gal(b1-4)GlcNAc(b1-2)Man(a1-6)]Man(b1-4)GlcNAc(b1-4)GlcNAc", "method_in_brief": "as §1"}, "[13]": {"molecular_target": "Neu5Ac(a2-6)Gal(b1-4)GlcNAc(b1-2)Man(a1-3)[Neu5Ac(a2-6)Gal(b1-4)GlcNAc(b1-2)Man(a1-6)]Man(b1-4)GlcNAc(b1-4)[Fuc(a1-6)]GlcNAc", "method_in_brief": "as §1"}, "[14]": {"molecular_target": "Neu5Ac(a2-6)Gal(b1-4)GlcNAc(b1-2)Man(a1-3)[Neu5Gc(a2-6)Gal(b1-4)GlcNAc(b1-2)Man(a1-6)]Man(b1-4)GlcNAc(b1-4)GlcNAc", "method_in_brief": "as §1"}, "[15]": {"molecular_target": "Neu5Ac(a2-6)Gal(b1-4)GlcNAc(b1-2)Man(a1-6)Man(b1-4)GlcNAc(b1-4)GlcNAc", "method_in_brief": "as §1"}, "[16]": {"molecular_target": "Neu5Ac(a2-6)Gal(b1-4)GlcNAc(b1-2)Man(a1-6)[Gal(b1-4)GlcNAc(b1-2)Man(a1-3)]Man(b1-4)GlcNAc(b1-4)GlcNAc", "method_in_brief": "as §1"}, "[17]": {"molecular_target": "Neu5Ac(a2-6)Gal(b1-4)GlcNAc(b1-2)Man(a1-6)[GlcNAc(b1-2)Man(a1-3)]Man(b1-4)GlcNAc(b1-4)GlcNAc", "method_in_brief": "as §1"}, "[18]": {"molecular_target": "Neu5Ac(a2-6)Gal(b1-4)GlcNAc(b1-2)Man(a1-6)[Man(a1-3)]Man(b1-4)GlcNAc(b1-4)GlcNAc", "method_in_brief": "as §1"}, "[19]": {"molecular_target": "Neu5Ac(a2-6)Gal(b1-4)GlcNAc(b1-2)[Neu5Ac(a2-3)Gal(b1-4)GlcNAc(b1-4)]Man(a1-3)[Neu5Ac(a2-3)Gal(b1-4)GlcNAc(b1-2)Man(a1-6)]Man(b1-4)GlcNAc(b1-4)GlcNAc", "method_in_brief": "as §1"}, "[20]": {"molecular_target": "Neu5Ac(a2-6)Gal(b1-4)GlcNAc(b1-2)[Neu5Ac(a2-6)Gal(b1-4)GlcNAc(b1-4)]Man(a1-3)[GlcNAc(b1-4)][Neu5Ac(a2-6)Gal(b1-4)GlcNAc(b1-2)[Neu5Ac(a2-6)Gal(b1-4)GlcNAc(b1-6)]Man(a1-6)]Man(b1-4)GlcNAc(b1-4)GlcNAc", "method_in_brief": "as §1"}, "[21]": {"molecular_target": "Neu5Ac(a2-6)Gal(b1-4)GlcNAc(b1-2)[Neu5Ac(a2-6)Gal(b1-4)GlcNAc(b1-4)]Man(a1-3)[GlcNAc(b1-4)][Neu5Ac(a2-6)Gal(b1-4)GlcNAc(b1-4)Man(a1-6)]Man(b1-4)GlcNAc(b1-4)GlcNAc", "method_in_brief": "as §1"}, "[22]": {"molecular_target": "Neu5Ac(a2-6)Gal(b1-4)GlcNAc(b1-2)[Neu5Ac(a2-6)Gal(b1-4)GlcNAc(b1-6)]Man(a1-6)[Neu5Ac(a2-6)Gal(b1-4)GlcNAc(b1-2)Man(a1-3)][GlcNAc(b1-4)]Man(b1-4)GlcNAc(b1-4)GlcNAc", "method_in_brief": "as §1"}, "[23]": {"molecular_target": "Neu5Ac(a2-6)Gal(b1-4)GlcNAc(b1-3)Gal(b1-3)GlcNAc", "method_in_brief": "as §1"}, "[24]": {"molecular_target": "Neu5Ac(a2-6)Gal(b1-4)GlcNAc(b1-3)Gal(b1-4)Glc", "method_in_brief": "as §1"}, "[25]": {"molecular_target": "Neu5Ac(a2-6)Gal(b1-4)GlcNAc(b1-3)Gal(b1-4)GlcNAc", "method_in_brief": "as §1"}, "[26]": {"molecular_target": "Neu5Ac(a2-6)Gal(b1-4)GlcNAc(b1-3)Gal(b1-4)GlcNAc(b1-2)Man(a1-3)[Neu5Ac(a2-6)Gal(b1-4)GlcNAc(b1-3)Gal(b1-4)GlcNAc(b1-2)Man(a1-6)]GalNAc", "method_in_brief": "as §1"}, "[27]": {"molecular_target": "Neu5Ac(a2-6)Gal(b1-4)GlcNAc(b1-3)Gal(b1-4)GlcNAc(b1-3)Gal(b1-4)GlcNAc", "method_in_brief": "as §1"}}, "note": "This is one part of the list.", "data": [{"binder": "B1", "values": [{"measurement": "glycan array binding signal (z-score)", "setting": "[1]", "value": -0.151}, {"measurement": "glycan array binding signal (z-score)", "setting": "[2]", "value": -0.195}, {"measurement": "glycan array binding signal (z-score)", "setting": "Neu5Ac(a2-6)Gal(b1-4)Glc", "value": -0.166}, {"measurement": "glycan array binding signal (z-score)", "setting": "[3]", "value": -0.191}, {"measurement": "glycan array binding signal (z-score)", "setting": "[4]", "value": -0.239}, {"measurement": "glycan array binding signal (z-score)", "setting": "[5]", "value": -0.181}, {"measurement": "glycan array binding signal (z-score)", "setting": "[6]", "value": -0.176}, {"measurement": "glycan array binding signal (z-score)", "setting": "[7]", "value": -0.199}, {"measurement": "glycan array binding signal (z-score)", "setting": "[8]", "value": -0.193}, {"measurement": "glycan array binding signal (z-score)", "setting": "[9]", "value": -0.394}, {"measurement": "glycan array binding signal (z-score)", "setting": "[10]", "value": -0.157}, {"measurement": "glycan array binding signal (z-score)", "setting": "[11]", "value": -0.054}, {"measurement": "glycan array binding signal (z-score)", "setting": "[12]", "value": -0.134}, {"measurement": "glycan array binding signal (z-score)", "setting": "[13]", "value": -0.21}, {"measurement": "glycan array binding signal (z-score)", "setting": "[14]", "value": -0.195}, {"measurement": "glycan array binding signal (z-score)", "setting": "[15]", "value": -0.197}, {"measurement": "glycan array binding signal (z-score)", "setting": "[16]", "value": -0.226}, {"measurement": "glycan array binding signal (z-score)", "setting": "[17]", "value": -0.155}, {"measurement": "glycan array binding signal (z-score)", "setting": "[18]", "value": -0.19}, {"measurement": "glycan array binding signal (z-score)", "setting": "[19]", "value": -0.195}, {"measurement": "glycan array binding signal (z-score)", "setting": "[20]", "value": -0.219}, {"measurement": "glycan array binding signal (z-score)", "setting": "[21]", "value": -0.265}, {"measurement": "glycan array binding signal (z-score)", "setting": "[22]", "value": -0.364}, {"measurement": "glycan array binding signal (z-score)", "setting": "[23]", "value": -0.109}, {"measurement": "glycan array binding signal (z-score)", "setting": "[24]", "value": -0.195}, {"measurement": "glycan array binding signal (z-score)", "setting": "[25]", "value": -0.084}, {"measurement": "glycan array binding signal (z-score)", "setting": "[26]", "value": -0.083}, {"measurement": "glycan array binding signal (z-score)", "setting": "[27]", "value": -0.114}]}]}
